# In the supplement of paper PMC8728848:
# This is one part of the list.
# Legend:
# Assay in all cases: glycan array binding signal (z-score within array); higher = stronger binding
# Settings in all cases: glycan notation: IUPAC condensed, linker removed
# [1] = biological target: Gal(b1-4)GlcNAc(b1-2)Man(a1-3)[Gal(b1-4)GlcNAc(b1-2)Man(a1-6)]Man(b1-4)GlcNAc(b1-4)GlcNAc
# Summary of the method: (§1)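 Glycan array binding is given as a within-array Z-score, which can be read as non-binding when negative. The arrays, 3228 of them, came from the Consortium for Functional Glycomics database and were retained only where the protein sequence was available. Z-scores were averaged across arrays of the same protein sequence at different concentrations or buffers and across linkers.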
# [2] = biological target: Gal(b1-4)GlcNAc(b1-2)Man(a1-3)[Gal(b1-4)GlcNAc(b1-2)Man(a1-6)]Man(b1-4)GlcNAc(b1-4)[Fuc(a1-6)]GlcNAc
# Summary of the method: as §1
# [3] = biological target: Gal(b1-4)GlcNAc(b1-2)Man(a1-3)[Gal(b1-4)GlcNAc(b1-2)Man(a1-6)][Gal(b1-4)GlcNAc(b1-4)]Man(b1-4)GlcNAc(b1-4)[Fuc(a1-6)]GlcNAc
# Summary of the method: as §1
# [4] = biological target: Gal(b1-4)GlcNAc(b1-2)Man(a1-3)[Gal(b1-4)GlcNAc(b1-2)Man(a1-6)][GlcNAc(b1-4)]Man(b1-4)GlcNAc(b1-4)[Fuc(a1-6)]GlcNAc
# Summary of the method: as §1
# [5] = biological target: Gal(b1-4)GlcNAc(b1-2)Man(a1-3)[GlcNAc(b1-2)Man(a1-6)]Man(b1-4)GlcNAc(b1-4)GlcNAc
# Summary of the method: as §1
# [6] = biological target: Gal(b1-4)GlcNAc(b1-2)Man(a1-3)[GlcNAc(b1-4)][Gal(b1-4)GlcNAc(b1-2)Man(a1-6)]Man(b1-4)GlcNAc(b1-4)GlcNAc
# Summary of the method: as §1
# [7] = biological target: Gal(b1-4)GlcNAc(b1-2)Man(a1-3)[Man(a1-6)]Man(b1-4)GlcNAc(b1-4)GlcNAc
# Summary of the method: as §1
# [8] = biological target: Gal(b1-4)GlcNAc(b1-2)Man(a1-6)Man(b1-4)GlcNAc(b1-4)GlcNAc
# Summary of the method: as §1
# [9] = biological target: Gal(b1-4)GlcNAc(b1-2)Man(a1-6)[GlcNAc(b1-2)Man(a1-3)]Man(b1-4)GlcNAc(b1-4)GlcNAc
# Summary of the method: as §1
# [10] = biological target: Gal(b1-4)GlcNAc(b1-2)Man(a1-6)[Man(a1-3)]Man(b1-4)GlcNAc(b1-4)GlcNAc
# Summary of the method: as §1
# [11] = biological target: Gal(b1-4)GlcNAc(b1-2)[Gal(b1-4)GlcNAc(b1-4)]Man(a1-3)[Gal(b1-4)GlcNAc(b1-2)Man(a1-6)]Man(b1-4)GlcNAc(b1-4)GlcNAc
# Summary of the method: as §1
# [12] = biological target: Gal(b1-4)GlcNAc(b1-2)[Gal(b1-4)GlcNAc(b1-4)]Man(a1-3)[Gal(b1-4)GlcNAc(b1-2)[Gal(b1-4)GlcNAc(b1-6)]Man(a1-6)]Man(b1-4)GlcNAc(b1-4)GlcNAc
# Summary of the method: as §1
# [13] = biological target: Gal(b1-4)GlcNAc(b1-2)[Gal(b1-4)GlcNAc(b1-4)]Man(a1-3)[GlcNAc(b1-4)][Gal(b1-4)GlcNAc(b1-2)Man(a1-6)]Man(b1-4)GlcNAc(b1-4)GlcNAc
# Summary of the method: as §1
# [14] = biological target: Gal(b1-4)GlcNAc(b1-2)[Gal(b1-4)GlcNAc(b1-4)]Man(a1-3)[GlcNAc(b1-4)][Gal(b1-4)GlcNAc(b1-2)[Gal(b1-4)GlcNAc(b1-6)]Man(a1-6)]Man(b1-4)GlcNAc(b1-4)GlcNAc
# Summary of the method: as §1
# [15] = biological target: Gal(b1-4)GlcNAc(b1-2)[Gal(b1-4)GlcNAc(b1-6)]Man(a1-6)[Gal(b1-4)GlcNAc(b1-2)Man(a1-3)]Man(b1-4)GlcNAc(b1-4)GlcNAc
# Summary of the method: as §1
# [16] = biological target: Gal(b1-4)GlcNAc(b1-2)[Gal(b1-4)GlcNAc(b1-6)]Man(a1-6)[Gal(b1-4)GlcNAc(b1-2)Man(a1-3)]Man(b1-4)GlcNAc(b1-4)[Fuc(a1-6)]GlcNAc
# Summary of the method: as §1
# [17] = biological target: Gal(b1-4)GlcNAc(b1-2)[Gal(b1-4)GlcNAc(b1-6)]Man(a1-6)[GlcNAc(b1-4)][Gal(b1-4)GlcNAc(b1-2)Man(a1-3)]Man(b1-4)GlcNAc(b1-4)GlcNAc
# Summary of the method: as §1
# [18] = biological target: Gal(b1-4)GlcNAc(b1-2)[Gal(b1-4)GlcNAc(b1-6)]Man(a1-6)[GlcNAc(b1-4)][Gal(b1-4)GlcNAc(b1-2)[Gal(b1-4)GlcNAc(b1-4)]Man(a1-3)]Man(b1-4)GlcNAc(b1-4)[Fuc(a1-6)]GlcNAc
# Summary of the method: as §1
# [19] = biological target: Gal(b1-4)GlcNAc(b1-3)Gal(b1-3)GalNAc
# Summary of the method: as §1
binder,measurement,setting,value
"MGL2 (Mus musculus), Q8JZN1 (protein) MTMRYENFQNLEREEKNQEMRNGDKKGGMESPKFALIPSQSFLWRILSWTHLLLFSLGLSLLLLVVISVIGSQNSQLRRDLGTLRAILDNTTSKIKAEFQSLDSRADNFEKGISSLKVDVEDHRQELQAGRDLSQKVTSLESTLEKREQALKTDLSDLTDHVQQLETDLKALTCQLANLKNNGSEVACCPLHWTEHEGSCYWFSESEKSWPEADKYCRLENSHLVVVNSLEEQNFLQNRLANVLSWMGLTDQNGPWRWVDGTDFDKGFKNWRPLQPDNWHGHMLGGGEDCAHFSYDGRWNDDVCQRHYHWICETELGKASSAHSPQLIASVP",glycan array binding signal (z-score),[1],-0.293
same,glycan array binding signal (z-score),[2],-0.137
same,glycan array binding signal (z-score),[3],-0.213
same,glycan array binding signal (z-score),[4],-0.247
same,glycan array binding signal (z-score),[5],-0.213
same,glycan array binding signal (z-score),[6],-0.267
same,glycan array binding signal (z-score),[7],0.037
same,glycan array binding signal (z-score),[8],-0.174
same,glycan array binding signal (z-score),[9],-0.15
same,glycan array binding signal (z-score),[10],-0.255
same,glycan array binding signal (z-score),[11],-0.23
same,glycan array binding signal (z-score),[12],-0.247
same,glycan array binding signal (z-score),[13],-0.057
same,glycan array binding signal (z-score),[14],0.034
same,glycan array binding signal (z-score),[15],0.013
same,glycan array binding signal (z-score),[16],-0.193
same,glycan array binding signal (z-score),[17],-0.221
same,glycan array binding signal (z-score),[18],-0.22
same,glycan array binding signal (z-score),[19],-0.14
